The record followed here is article PMC6919601, “Identification of Plasmodium dipeptidyl aminopeptidase allosteric inhibitors by high throughput screening” (PLoS ONE, 2019).

The structures appear in SMILES notation. In all, about 110,000 compounds went through this assay and about 230 (0.21%) showed an effect of 50% or more. Some of the results follow.
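Note: 30 min substrate incubation versus DMSO and 10 µM JCP410 controls.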

Chain of DPAP1 (Q8IIJ9 whole entry, looked up): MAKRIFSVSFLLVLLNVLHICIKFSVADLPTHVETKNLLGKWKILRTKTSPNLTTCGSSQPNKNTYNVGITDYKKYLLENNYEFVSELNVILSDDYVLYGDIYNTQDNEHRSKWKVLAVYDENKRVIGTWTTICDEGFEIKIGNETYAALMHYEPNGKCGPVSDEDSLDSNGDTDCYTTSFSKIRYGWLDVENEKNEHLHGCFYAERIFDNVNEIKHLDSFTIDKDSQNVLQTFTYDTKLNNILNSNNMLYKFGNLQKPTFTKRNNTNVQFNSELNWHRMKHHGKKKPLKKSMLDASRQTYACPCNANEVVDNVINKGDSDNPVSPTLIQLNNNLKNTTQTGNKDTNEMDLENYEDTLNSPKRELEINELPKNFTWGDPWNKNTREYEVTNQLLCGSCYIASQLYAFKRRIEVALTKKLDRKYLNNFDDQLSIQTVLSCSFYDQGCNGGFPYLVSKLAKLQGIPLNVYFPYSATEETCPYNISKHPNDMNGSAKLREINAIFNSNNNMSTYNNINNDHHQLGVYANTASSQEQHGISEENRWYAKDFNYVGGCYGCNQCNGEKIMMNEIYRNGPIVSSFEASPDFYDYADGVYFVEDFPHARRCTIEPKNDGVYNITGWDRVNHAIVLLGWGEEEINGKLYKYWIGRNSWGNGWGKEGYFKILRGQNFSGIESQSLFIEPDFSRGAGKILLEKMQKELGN

The assay concerns the target DPAP1 (Plasmodium falciparum, UniProt Q8IIJ9). As to the kind of experiment: primary screen, percent inhibition; read by cleavage of a fluorogenic dipeptide substrate; higher = more effect of the substance. More on the design: species or system P. falciparum D10 trophozoite lysates; single well.
As to `N#C/C(=C\c1c(Oc2ccccc2Cl)nc2ccccn2c1=O)C(=O)NCC1CCCO1` (stereo not drawn), the “% Inhibition @ 10 uM” value is reported as 4.99%.
Consider `O=C(NCc1ccccc1Cl)c1cc(-c2ccncc2)nc2ccccc12`, for which the “% Inhibition @ 10 uM” value is given as -4.06%.
For the compound `Cc1cc(C)n(CCc2nc3c4ccccc4nc(N4CCN(C(=O)c5ccco5)CC4)n3n2)n1`, the “% Inhibition @ 10 uM” value turned out to be 0.981%.
Under `CCc1ccc(C2CC(=O)NC3=C2C(=O)CCC3)cc1` (stereo not drawn) stands 0.205%.
To `C=CCOn1c(C)c(C(C)=O)c2c3no[n+]([O-])c3ccc21` belongs -0.988%.
As for `CCN(CC)C(=O)Cn1nc(-c2ccc(Cl)cc2)c2ccccc2c1=O`, the “% Inhibition @ 10 uM” value is given as -3.96%.
Take `CN1CCCc2c1nc1c(c2N)CCCC1`: the “% Inhibition @ 10 uM” value is -2.91%.
Under `Cc1cc(-c2ncccc2O)cc(C)c1O` stands 3.98%; under `Cc1ccc2nc3c(cc(S(=O)(=O)c4ccc(Cl)cc4)c(=N)n3Cc3ccco3)c(=O)n2c1`, 13.6%.
On to `CC1=C(C(=O)Nc2ccc(C)cc2)C(c2ccc(N(C)C)cc2)NC(=O)N1` (stereo not drawn), for which the “% Inhibition @ 10 uM” value is on record as -1.54%.
In the case of `CCOC(=O)N1CCC(N(CC)CCN(C)C)CC1`, the “% Inhibition @ 10 uM” value was -2.95%.
With `O=S1(=O)C=C(Oc2ccc3ccccc3c2)c2ccccc21`, the “% Inhibition @ 10 uM” value is recorded as -6.42%.
Under `Fc1ccc(N2CCN(C/C(Cl)=C/c3ccccc3)CC2)cc1` stands 1.88%; under `Cc1nn(C(C)C(=O)NCCc2ccc(Cl)cc2)c(=O)c2nn(-c3ccccc3)c(C)c12` (stereo not drawn), -1.94%; under `Cc1cc(C(F)(F)F)c2c(N)c(C(=O)c3ccc(Br)cc3)sc2n1`, 0.605%.
Under `Cc1cc(C)n2nc(CCC(=O)NCc3ccc(Cl)cc3)nc2n1` stands -6.62%; under `COc1ccc(C2=NS(=O)(=O)N(C)C(C(=O)NCc3cccnc3)=C2)cc1`, 2.32%.
Under `N=C1C[N+](CC23CC4CC(CC(C4)C2)C3)=NO1` stands 0.146%; under `CCn1c(SCC(=O)O)nnc1-c1c[nH]c2ccccc12`, -2.05%; under `COc1ccc2c(c1)CC(N1CCN(C)CC1)c1cc(OC)ccc1S2` (stereo not drawn), 2.19%.
As for `Cc1nc2ncnn2c(C)c1CCC(=O)N1CCC(Cc2ccccc2)CC1`, the “% Inhibition @ 10 uM” value is given as -0.685%.
With `CCN1CCN(Cc2csc(C)c2-c2ccc(C)cc2)CC1`, the “% Inhibition @ 10 uM” value is recorded as -0.751%.
To `CC(=O)/C=C/c1ccc(-c2cc(Cl)ccc2Cl)o1` belongs -1.5%; to `Cc1ccc(/C=C(\C#N)c2nc(-c3ccc(C)cc3C)cs2)cc1`, 0.98%.
To `COc1ccc2ccccc2c1C1NC(SCc2ccccc2C#N)=NC(C)=C1C(C)=O` (stereo not drawn) belongs 3.06%; to `CC1(C)CC(c2csc(N)n2)CCO1` (stereo not drawn), 3.01%; to `COc1ccc(-c2cc(C(F)(F)F)n3ncc(C(=O)NC(C)(C)C)c3n2)cc1OC`, -13.4%.
For `COc1cc(CNC2CCCC2)cc(OC)c1`, the “% Inhibition @ 10 uM” value is 2.65%.
To `Cc1nnc(NC(=O)CNC(=O)Cn2c(C)cc3ccccc3c2=O)s1` belongs 5.85%; to `COc1ccc(-c2nnc3n(CCCOC(C)C)c(=O)c4ccccc4n23)cc1OC`, 0.00665%; to `Cc1ccc(CCNC(=O)Nc2cn(CC(C)C)c(=O)c3ccccc23)cc1`, 5.23%.
To `CC(Cc1ccccc1F)N1CCCC(O)C1` (stereo not drawn) belongs -3.5%; to `CCc1ccc(-c2cn3c(n2)sc2cc(C(=O)N4CCCC4)ccc23)cc1`, 4.85%.
To `O=C(O)C1CC=CCC1C(=O)Nc1ccc(N2CCN(Cc3ccccc3)CC2)cc1` (stereo not drawn) belongs -1.61%.
In the case of `CN1C(=O)C(=Cc2cn(CC#N)c3ccccc23)C(=O)N(C)C1=O`, the “% Inhibition @ 10 uM” value is given as -5.16%.
Take `Cc1cccc(OCc2nnc(NC(=O)C34CC5CC(CC(C5)C3)C4)s2)c1`: the “% Inhibition @ 10 uM” value turned out to be 25.9%.
Take `O=C(NC1CCCCCC1)C(Cc1ccccc1)NS(=O)(=O)c1cccc2nsnc12` (stereo not drawn): the “% Inhibition @ 10 uM” value came out at 3.63%.
To `CCOC(=O)c1c(NC(=O)CC)sc2c1CCC/C2=N/O` belongs -6.68%; to `COc1ccc(-n2c3c(c(=O)[nH]c2=O)C(NC(=O)c2cccc(Cl)c2)(C(F)(F)F)C(=O)N3)cc1` (stereo not drawn), 1.93%; to `Cc1ccccc1CN1CCN(C2CCCC2)CC1`, 0.131%.
For `CCOc1ccc(C(=O)Nc2ccc(NC(=O)c3ccco3)c(OC)c2)cc1Br`, the “% Inhibition @ 10 uM” value is reported as -0.511%.
Under `CNC1Cc2cc(Cl)ccc2Sc2ccccc21` (stereo not drawn) stands -2.87%; under `CC1(C)CC(=O)c2sc(N3CCCCC3)nc2C1`, 3.65%; under `COc1ccc(/C=c2\sc3nc(-c4ccccc4)nn3c2=O)cc1`, 3.34%.
Under `Cc1ccc(C(=O)NCC2CCCO2)cc1Br` (stereo not drawn) stands -0.425%.
Under `Cc1ccc(C)c(S(=O)(=O)NCc2ccc(C(=O)NCc3ccccn3)cc2)c1` stands 0.709%.
For `CCOC(=O)N1CCc2c(sc(N)c2C(=O)c2ccccc2Cl)C1`, the “% Inhibition @ 10 uM” value was -0.68%.
On to `COc1ccc(OC)c(NC(=O)c2cccc(Cl)c2)c1`, for which the “% Inhibition @ 10 uM” value is on record as -5.92%.
Under `CCOc1ccccc1C(=O)Nc1c(C)cccc1C` stands -1.07%; under `Cc1ccc2oc(=O)n(CCOc3ccccc3C)c2c1`, -0.366%; under `CCc1cc2c(=O)n(-c3ccc(Cl)c(Cl)c3)c(=O)[nH]c2s1`, -2.51%.
Under `CCCC(=O)Nc1ccc(Cl)c(NC(=O)c2ccc(OCC)cc2)c1` stands 3.69%.
On to `CCOc1ccc(NC(=O)CSc2nc3cc(C)ccc3cc2C#N)cc1`, for which the “% Inhibition @ 10 uM” value was 2.51%.
Under `CN1CCN(C(=O)Cn2nc(-c3ccc(Cl)cc3)c3ccccc3c2=O)CC1` stands 2.95%; under `O=C(NCc1ccncc1)c1cccc(COc2ccc3c(c2)CCC3)c1`, 2.1%; under `O=C(O)Cn1ncn2nc(-c3cccs3)cc2c1=O`, -1.6%.
Under `O=C(Nc1cccc(Cl)c1)Nc1ccccc1OC(F)F` stands -2.77%; under `COc1cccc(C(=O)NCc2ccccc2OC)c1`, -4.43%; under `Cc1ccccc1C1CC(=O)NC(SCc2ccccc2)=C1C#N` (stereo not drawn), -1.4%.
Under `COc1ccccc1C1C2=C(O)CCCC2=NC(C)=C1C(=O)OCC1CCCO1` (stereo not drawn) stands 4.95%.
Consider `CN1CCC(N(CCO)Cc2ccccc2)CC1`, for which the “% Inhibition @ 10 uM” value is on record as -3.6%.
Regarding `Cc1c(CNCCc2ccc(S(N)(=O)=O)cc2)c(C(=O)O)c(C)n1Cc1ccc(F)cc1`, the “% Inhibition @ 10 uM” value is given as -11.3%.
Take `O=C(NCCCCc1ccccc1)c1ccccc1F`: the “% Inhibition @ 10 uM” value was -1.48%.
Under `COc1ccc(OC)c(CCNC(=O)C2CCCN(c3nn4c(=O)cc(C)nc4s3)C2)c1` (stereo not drawn) stands 0.0882%.
Under `COc1cc(CN(C(=S)NCC(=O)NCc2ccc(F)cc2)C2CCCC2)cc(OC)c1OC` stands -0.406%; under `CCc1ccccc1-n1nnc(-c2nsc(NC(=O)c3cccs3)n2)c1C`, 0.224%; under `COc1ccccc1CNC(=O)c1ccc(CS(=O)(=O)c2cccc(C(F)(F)F)c2)o1`, -3.09%.
To `Cc1cc(C)c(S(=O)(=O)C(C)(C)C)c(C)c1` belongs 3.31%.
Regarding `Cc1cc(NC(=O)CCCOc2ccc(Cl)cc2Cl)no1`, the “% Inhibition @ 10 uM” value is on record as -4.98%.
Take `Cc1cc(NC(=O)c2nn(C)c3c2CSc2ccccc2-3)no1`: the “% Inhibition @ 10 uM” value worked out at 4.86%.
Under `CCOc1ccccc1Nc1nc(-c2ccc(Cl)cc2)c(C)s1` stands 3.25%.
Under `COc1cc2c(cc1/C=C1/NC(=O)N(c3cccc(Cl)c3)C1=O)OCO2` stands -11.5%; under `O=C(NCC1CCCO1)c1cc2nc(-c3ccco3)cc(C(F)(F)F)n2n1` (stereo not drawn), 16.3%.
To `CC(C)CNS(=O)(=O)c1ccc(CCC(=O)Nc2c(F)cccc2F)cc1` belongs -3.45%; to `COc1ccccc1CNC(=O)Cn1ccc2cc(S(=O)(=O)N3CCCC3)ccc21`, -4.85%.
With `CCOc1ccc2c(=O)c(Oc3ccc(OC)cc3)c(C(F)(F)F)oc2c1`, the “% Inhibition @ 10 uM” value stood at 0.528%.
To `O=C1NC(=O)/C(=C\c2ccc3ccccc3c2)S1` belongs -1.15%.
Turning to `CS(=O)(=O)n1nc(-c2ccc(Cl)cc2)nc1SCc1ccccc1`, the “% Inhibition @ 10 uM” value is reported as 0.343%.
With `CC(C)Oc1ccc(C2N3CC4(C)CN2CC(c2ccccc2)(C3)C4=O)cc1` (stereo not drawn), the “% Inhibition @ 10 uM” value is -8.78%.
On to `CCN(CC)CCOC(=O)c1ccc(-n2cccc2)cc1`, for which the “% Inhibition @ 10 uM” value is listed as -0.403%.
Under `CNC(=O)CCn1nc(-c2ccc(Cl)cc2)c2ccccc2c1=O` stands -10.9%; under `Cc1cccc(-n2nc3c(c2NC(=O)c2ccc(Cl)cc2)CS(=O)(=O)C3)c1C`, 5.9%; under `COCC(=O)NC1(C(=O)NC2CCCC2)CCCCC1`, 0.512%.
`COc1ccc(N(CC(=O)Nc2ccc(Br)cc2)S(C)(=O)=O)c(OC)c1`: the “% Inhibition @ 10 uM” value was -3.25%.
To `O=C(c1ccccc1[N+](=O)[O-])N1CCc2ccccc2C1` belongs 2.13%.
Under `COc1ccc(-c2noc(N3CC=C(c4ccccc4)CC3)n2)cc1` stands -8.92%.
As to `CCN1CCN(Cc2c(Cl)cccc2Cl)CC1`, the “% Inhibition @ 10 uM” value is -3.57%.
Under `COc1ccc(OCCn2nnc3sc4c(c3c2=O)CCC(C)C4)cc1` (stereo not drawn) stands 2.41%.
As to `CN1CCN(CCNC(=O)Cn2ncc3c4ccccc4n(C)c3c2=O)CC1`, the “% Inhibition @ 10 uM” value was found to be 4.95%.
Turning to `O=C1CCCN1CCCNc1ncnc2c1cnn2-c1ccccc1`, the “% Inhibition @ 10 uM” value stood at 2.4%.
To `CCN1CCN(c2ncnc3c2cnn3C)CC1` belongs -4.46%.
Turning to `CC(C)Cc1cc(-c2ccco2)c(C#N)c(N)n1`, the “% Inhibition @ 10 uM” value is listed as -2.42%.
To `CCOc1ccc(NC(=O)CC2Sc3ccccc3NC2=O)cc1` (stereo not drawn) belongs -2.17%; to `CCCCNC(=O)c1cc2c(-c3ccccc3F)nn(C)c2s1`, -3.23%; to `Oc1nnc(NCc2nc3cccnc3[nH]2)c2ccccc12`, 1.22%.
For `COc1cc(C)c(-c2cc(C(=O)O)c(C)o2)cc1C(C)C`, the “% Inhibition @ 10 uM” value was determined as 1.32%.
To `CC(C)CN1C(=O)c2ccccc2C(C(=O)NCC2CCCO2)C1c1cccs1` (stereo not drawn) belongs 0.867%.
As to `COc1cc(C(=O)N2CCN(Cc3ccc(Br)cc3)CC2)cc(OC)c1OC`, the “% Inhibition @ 10 uM” value was -4.6%.
Under `CCCC1=C(C(=O)OCC)C(c2ccc(Cl)cc2Cl)NC(=O)N1` (stereo not drawn) stands 0.0538%; under `CCOc1ccc(C(=O)C[n+]2c(C)n(C)c3ccccc32)cc1`, -2.41%; under `COc1ccc(/C=C2\C(=O)NC(=O)N(c3ccccc3)C2=O)cc1`, 2.51%.
To `C/C(=N/O)c1ccc(NS(C)(=O)=O)cc1` belongs -6.09%.
